Laboratory results from PubChem BioAssay AID624417 (National Center for Advancing Translational Sciences (NCATS), 2012).
In all, about 410,000 compounds went through this assay and about 6,400 (1.6%) were called active. This list was built around the results that the source calls inconclusive (neither active nor inactive); the mix of calls is not that of the screen. Calls come from the whole dose curve; as a rule, active = well fitted inhibition curve with a large enough effect; inconclusive = small, poorly fitted or top-dose-only effect; inactive = no such curve, though single readings can be large or run the other way. Potencies of inconclusive entries are doubtful fits and often do not repeat.

Each molecule was assayed against Glucagon-like peptide 1 receptor (Homo sapiens) (UniProt P43220) (assay: qHTS of GLP-1 Receptor Inverse Agonists (Inhibition Mode)). Conditions: HEK293 GLP-1R CRE-luciferase, luminescence, 24 h, GLP-1R form is constitutively active; activity change, negative = inhibition: at 38.3 µM (top of the series) unless noted.
Outline: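 Assay principle: reduced luminescence from a cAMP-responsive reporter in HEK293 cells co-expressing a constitutively active GLP-1R. Conditions: 24 hr compound incubation, 37 deg C, 5% CO2.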
% is set by controls: 0 for no effect and ±100 for the full control effect; potency is the fitted concentration of half-maximal effect; tags give direction and shape of the fitted curve.
Note: nearly all actives have a fitted effect of over 55% in size.

Chain of UniProt P43220 (P43220 whole entry, looked up): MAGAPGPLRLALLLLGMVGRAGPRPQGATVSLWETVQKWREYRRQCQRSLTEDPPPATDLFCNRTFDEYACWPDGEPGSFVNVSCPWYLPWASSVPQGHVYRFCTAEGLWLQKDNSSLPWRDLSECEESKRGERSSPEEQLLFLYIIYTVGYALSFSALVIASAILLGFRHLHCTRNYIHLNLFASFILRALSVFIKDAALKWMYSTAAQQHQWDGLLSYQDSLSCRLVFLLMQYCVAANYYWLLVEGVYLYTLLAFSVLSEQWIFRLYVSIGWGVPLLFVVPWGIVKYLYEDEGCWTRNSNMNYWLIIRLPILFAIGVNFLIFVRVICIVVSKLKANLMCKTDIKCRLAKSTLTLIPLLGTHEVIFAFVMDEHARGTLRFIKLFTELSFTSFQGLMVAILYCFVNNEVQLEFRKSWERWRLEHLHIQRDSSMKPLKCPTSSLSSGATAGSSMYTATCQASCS

Potency, inconclusive:
CC(CCc1ccccc1)NC(=O)CN1CCOc2ccccc21 (stereo not drawn) 11.2 µM [inhibitor, partial curve, poor fit]
CCc1ccc(CN2CCC(n3nccc3NC(=O)c3ccccc3)CC2)o1 7.94 µM [inhibitor, partial curve, poor fit]
O=C(CCNC(=O)c1ccc(Br)cc1)NCc1ccccc1F 8.91 µM [inhibitor, single point]
CSc1cccc(NC(=O)C(c2ccccc2)N2Cc3ccccc3C2=O)c1 (stereo not drawn) 10 µM [inhibitor, partial curve, poor fit]
CC(=O)Nc1ccc(NC(=O)c2cc(-c3cc(C)cc(C)c3O)n[nH]2)cc1 31.6 µM [inhibitor, partial curve, poor fit]
COC(=O)c1cccc(CN2C(=O)SC(Nc3ccc(Br)cc3)C2=O)c1 (stereo not drawn) 10 µM [inhibitor, partial curve]
Cc1ccc(/C=C2\SC(=S)N(CCCC(=O)Nc3cccnc3)C2=O)cc1 1.78 µM [inhibitor, full curve, poor fit]
Cc1cccc(NC(=S)NC2CC3CCCC(C2)N3Cc2cccs2)c1 (stereo not drawn) 28.2 µM [inhibitor, single point]
COC(=O)c1cccc(C(=O)N2CCC(CO)(Cc3ccccc3Cl)CC2)c1 28.2 µM [inhibitor, single point]
CCN(C(=O)C1CCN(c2nc(-c3ccc(OC)cc3)no2)CC1)c1ccc(OC)cc1 10 µM [inhibitor, partial curve, poor fit]
Cc1ccc(S(=O)(=O)N2C[C@H]3N(C(=O)OC(C)C)N(C(=O)OC(C)C)C[C@H](OC(=O)NCc4ccccc4)[C@@]3(O)C2)cc1 11.2 µM [inhibitor, single point]
CN1OC[C@@H]2CN(Cc3ccc(Cl)cc3)[C@H](c3cccc(Br)c3)C[C@@H]21 28.2 µM [inhibitor, single point]
S=C(c1cn(Cc2ccccc2)c2ccccc12)N1CCOCC1 31.6 µM [inhibitor, partial curve, poor fit]
O=C(CCN1CCOCC1)c1ccc2c(c1)OCCO2 28.2 µM [inhibitor, single point]
O=C(CN1CCCC1)Nc1ccccc1C(=O)c1ccccc1 6.31 µM [inhibitor, partial curve, poor fit]
Cc1ccc(C)c(S(=O)(=O)N2CCN(CC(=O)Nc3ccc4c(c3)OCCO4)CC2)c1 28.2 µM [inhibitor, single point]
COc1ccc(Oc2nc(-c3cccnc3)nc3ccccc23)cc1 14.1 µM [inhibitor, single point]
O=C(Nc1ccccc1)C1=C[C@@H](C2CCCCC2)C[C@@H](OCc2ccc(CO)cc2)O1 5.62 µM [inhibitor, full curve, poor fit]
CCn1nc(C(=O)Nc2ccccc2C)c(Cl)c1Cl 12.6 µM [inhibitor, single point]
O=C(N/N=C/c1cccs1)c1cccc(S(=O)(=O)Nc2ccc(Cl)cc2)c1 28.2 µM [inhibitor, single point]
Cc1ccc(C)c(OCCCN2CCc3ccccc3C2)c1 11.2 µM [inhibitor, partial curve, poor fit]
O=C(NNc1cccc(Cl)c1)c1cccnc1Oc1ccccc1 0.631 µM [inhibitor, full curve, poor fit]
CCc1ccccc1NC(=O)NNC(=O)CCc1ccccc1 6.31 µM [inhibitor, partial curve, poor fit]
Cc1ccc2nc(N(CCCN(C)C)C(=O)CCc3ccccc3)sc2c1 3.98 µM [inhibitor, partial curve, poor fit]
CCCOc1ccc(C(=O)Nc2ccc3c(c2)OCCO3)cc1 28.2 µM [inhibitor, single point]
O=C(COc1cccc2ccccc12)NNC(=O)Nc1ccccc1 22.4 µM [inhibitor, single point]
CC(C)Cc1cc(C(=O)N2CCN(C(c3ccccc3)c3ccccc3)CC2)no1 12.6 µM [inhibitor, partial curve, poor fit]
COc1ccc(NC(=O)CSC2=C(C#N)C(c3ccco3)C(C(=O)Nc3nc4ccccc4s3)=C(C)N2)cc1 (stereo not drawn) 3.98 µM [inhibitor, full curve, poor fit]
CCCCN1C(=O)C(CC(=O)NC(c2ccccc2)c2ccccc2)CC(C(=O)N(C(C)C)C(C)C)=C1C (stereo not drawn) 10 µM [inhibitor, partial curve, poor fit]
O=C(Nc1ccc(S(=O)(=O)N2CCOCC2)cc1)c1cccc(Br)c1 3.98 µM [inhibitor, single point]
C/C(=N\NC(=O)c1cccc(Cl)c1)c1cccc(NC(=O)c2ccco2)c1 2.82 µM [inhibitor, partial curve, poor fit]
COc1cc(/C=N/NC(=S)NC2CC3C=CC2C3)cc(OC)c1OC (stereo not drawn) 11.2 µM [inhibitor, partial curve, poor fit]
Cc1cccc(CSc2ccc(S(=O)(=O)N3CCCC3)cn2)c1 31.6 µM [inhibitor, single point]
Cc1ccc(S(=O)(=O)N2CCN(C(=O)COC(=O)c3c(C)cc(C)cc3C)CC2)c(C)c1 10 µM [inhibitor, single point]
COC(=O)C1CCN(C(=O)COC(=O)c2cc(-c3ccccc3)nc3ccc(OC)cc23)CC1 28.2 µM [inhibitor, single point]
COc1ccc(Cn2ccc3nc(C)c(C(=O)NCc4ccc(C)cc4)cc3c2=O)cc1 1.41 µM [inhibitor, full curve, poor fit]
Cc1cc(CNC(=O)c2cc(-c3ccccc3)nc3ccccc23)nn1C 11.2 µM [inhibitor, partial curve, poor fit]
C/C(=N/OCc1ccc(Br)cc1)c1ccccn1 28.2 µM [inhibitor, single point]
CCCC(O)(CCN1CCOCC1)c1ccc(Br)cc1 (stereo not drawn) 22.4 µM [inhibitor, single point]
O=C(Nc1ccnn1C1CCN(CCCc2ccccc2)CC1)c1cccc(F)c1 10 µM [inhibitor, partial curve, poor fit]
O=C(OCC(=O)c1ccc(Br)s1)c1ccc(O)cc1 15.8 µM [inhibitor, single point]
Cc1ccc(C)c(N2CCN(C(=O)CCn3c(=O)[nH]c4ccccc4c3=O)CC2)c1 7.94 µM [inhibitor, partial curve, poor fit]
OC(CNCc1ccc2c(c1)OCO2)COc1ccc(F)cc1 (stereo not drawn) 31.6 µM [inhibitor, single point]
CCc1ccc(CNC(=O)C2CCCN(S(=O)(=O)N3CC(C)CC(C)C3)C2)cc1 (stereo not drawn) 7.94 µM [inhibitor, partial curve, poor fit]
Cc1ccc(Nc2nc(-c3ccccc3)c(CC(=O)O)s2)cc1 11.2 µM [inhibitor, single point]
COc1ccccc1-n1cnc2cc(NS(=O)(=O)c3ccc(Br)cc3)ccc21 28.2 µM [inhibitor, single point]

Potency, active:
CN(C)c1cccc(F)c1C(=O)NC(=O)Nc1ccc(Cl)cc1 8.91 µM
COc1ccc(-c2cc(C(F)(F)F)nc(NCCc3ccccc3)n2)cc1 3.16 µM
O=C(Nc1ccccc1N1CCCCC1)c1ccco1 11.2 µM

Activity change, negative = inhibition, inactive:
Cn1c2ccccc2c(=O)c2ccc(C#CC3(N)CCCCC3)cc21 -3.11%
CCc1cc(C(=O)N/N=C/c2ccc(O)cc2)c2ccccc2n1 -1.55%
CC1(C(=O)NS(=O)(=O)c2cccc(C#N)c2)CCN1C(=O)Cc1cc(F)ccc1F (stereo not drawn) 23.7%
CC(=O)[C@H]1[C@H]([C@H](O)[C@H](O)CO)O[C@](O)(C(=O)O)C[C@@H]1O 1.09%
CC(CNC(=O)CCCn1ncn2c(cc3occc32)c1=O)c1ccccc1 (stereo not drawn) -14.1%
CCNc1nc(ON=C(C)C)nc(N(C)C)n1 10.5%
COCCCNC(=O)c1c(N)n(-c2ccc(S(N)(=O)=O)cc2)c2nc3ccccc3nc12 -2.46%
Cn1cc(S(=O)(=O)c2ccc(Cl)cc2)c(=O)c2cc(F)c(N3CCOCC3)cc21 13%
CCCCc1cn([C@@H](CCCCNC(=O)OC(C)(C)C)C(=O)N2CCN(C(=O)OC(C)(C)C)CC2)nn1 -28.6%
CCCCn1nc(NC(=O)c2cccc(Cl)c2)c2cc3ccc(C)cc3nc21 3.24%
Cc1cccc(OCCSc2nc3ccc(NC(=O)COc4ccccc4F)cc3s2)c1 4.09%
COc1ccc(-c2oc3ncn4nc(-c5ccccc5Cl)nc4c3c2-c2ccc(OC)cc2)cc1 5.96%
COc1ccc(N2CCN(C(=O)c3cc(NS(=O)(=O)c4ccc(F)cc4)ccn3)CC2)cc1 -3.07%
Cc1ccc(C)c(NC(=O)CSc2ncc3c(n2)-c2cc(Cl)ccc2N(Cc2ccccc2F)S3(=O)=O)c1 1.67%
